# Test results published in the supplement of paper PMC7726561.
# Whole data set: some 1,100 sequences, median “thermal melting temperature (Tm) of peptide-HLA complex” near 58, cut for the lowest 2% near 42. The list shows a part of the results.
# Target: HLA-A*02:01
# Experiment: thermal melting temperature (Tm) of peptide-HLA complex; higher = more thermostable pHLA complex
# Conditions: C1R-A*02:01
# 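Also: cell lysates heated 10 min at 37–73 °C, remaining pHLA pulled down with pan-class I antibody, peptides quantified by DIA-MS versus 37 °C, Tm where half the complex is lost.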
row,Sequence,thermal melting temperature
1,GLSTEGIYRV,60.9 °C
2,ILYPKTLFLL,61.9 °C
3,HLDVQPAAL,49.2 °C
4,YLGDVSERV,59.1 °C
5,KLFNEFIQL,57.8 °C
6,SLTSKIPAL,55.6 °C
7,KIFEMGPVFTL,52.7 °C
8,SLEEFVHSL,47.6 °C
9,GLEEYLEKV,59.6 °C
10,LLDPNVKSIFV,62.2 °C
11,YLSEKVLAA,57.8 °C
12,HLFDAFVSV,63.1 °C
13,RLIEETISI,58.1 °C
14,ALAEIAKAEL,59.1 °C
15,YLDGHLITTV,59.8 °C
16,FLVDGPRVQL,57.1 °C
17,SLDERPVAV,61.2 °C
18,SISAGIPKV,57.4 °C
19,LLDVTPLSL,53.1 °C

row,Sequence,thermal melting temperature
1,ILEEKGLSQV,59.1 °C
2,NLAEVVERV,61.1 °C
3,VLYEKDIQLF,48.3 °C
4,RLLDGAFKL,49.9 °C
5,GLIDRQVTV,60.8 °C
6,VLEDPVHAV,48.5 °C
7,SLDSQKFVTV,48 °C
8,FVDGLTFKV,54.2 °C
9,GMYIFLHTV,60.3 °C
10,STYEGKPIFL,56.8 °C
11,IIRENSISL,58.5 °C
12,FLQEGDLISA,59.1 °C
13,VLLKARLVPA,59.7 °C
14,GVLDTLTKV,59.8 °C
15,QLLAILPEA,59.1 °C
16,VVWGTVIRV,58.5 °C
17,ALEEADKMFL,46.2 °C
18,QLQGYLRSV,57.7 °C
19,ALADKELLPSV,63.4 °C

row,Sequence,thermal melting temperature
1,FLMENGSITSI,58.2 °C
2,KLLDPEDISV,59.5 °C
3,VVVDPIQSV,50.6 °C
4,ILLDNDHYAM,50.2 °C
5,VIDGHIYAV,59.7 °C
6,RTIEYLEEV,59.7 °C
7,LIDVKPLGV,47.3 °C
8,KLNATNIEL,51.5 °C
9,LADETLLKV,55.2 °C
10,KLYDIDVAKV,56.2 °C
11,VLWNKTVTA,42.8 °C
12,AMFDHIPVGV,55.3 °C
13,YVTDVLYRV,62.5 °C
14,ELFSSPPAV,59.7 °C
15,ALLDQLHTL,62.5 °C
16,QLNDVAHLV,54.4 °C
17,TMAKESSIIGV,58.8 °C
18,YLGNINPQM,59.7 °C
